# ± gives the standard deviation of the averaged measurements. Over roughly 33,000 sequences, “E-score (dimensionless, -0.5 to 0.5)” has its median near -0.046; the highest 2% begin near 0.36. This is one part of the list.
# System: T1, SpTbr T-box DNA-binding domain (GST fusion)
# T1 sequence: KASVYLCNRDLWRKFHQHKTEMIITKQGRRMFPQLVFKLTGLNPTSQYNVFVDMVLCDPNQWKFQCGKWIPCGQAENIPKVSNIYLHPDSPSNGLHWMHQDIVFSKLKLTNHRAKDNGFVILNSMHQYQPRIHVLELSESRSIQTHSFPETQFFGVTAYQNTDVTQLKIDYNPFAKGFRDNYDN
# Assay: PBM E-score of 8-mer (E-score (dimensionless, -0.5 to 0.5)); Tbr is Tbrain of the sea star Patiria miniata (Pm) or the sea urchin Strongylocentrotus purpuratus (Sp); higher = stronger binding preference; most listed sequences are background and not binding sites
# Conditions: the construct has about 5 more residues each side
# How it was run: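 Primer extension turned Universal Agilent oligonucleotide arrays double-stranded. They were incubated with 200 nM protein in PBS (pH 7.5); the protein was a GST-fused Tbr T-box DNA-binding domain expressed in BL21 E. coli at 20 °C and purified on glutathione. Every ungapped 8-mer was scored from the scanned, quantified probe intensities, and the Universal PBM Analysis Suite gave each an enrichment E-score averaged over duplicate arrays.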
row,Sequence,PBM E-score of 8-mer
1,CGACCGAC,0.0457 ± 0.038
2,TGGGCGAA,-0.169 ± 0.019
3,ACAAATTG,0.134 ± 0.12
4,ATATCCGG,-0.305 ± 0.072
5,CCTGGTTA,-0.147 ± 0.013
6,TCTCAGCA,0.0521 ± 0.036
7,GCTATCAC,0.263 ± 0.0067
8,GTACGCGA,0.0498 ± 0.053
9,TGGCCACA,0.174 ± 0.053
10,ACGCACTC,0.157 ± 0.038
11,AGTAGCAT,-0.206 ± 0.013
12,AAACTTGA,-0.0341 ± 0.015
13,AAGACTCA,0.0905 ± 0.085
14,AGTTGCAA,0.0833 ± 0.015
15,GCCCCCCA,-0.222 ± 0.013
16,ACTTTTCT,0.00466 ± 0.018
17,ATGCTGCA,-0.179 ± 0.0059
18,ACTGCCGA,-0.00382 ± 0.001
19,CACACAAC,0.332 ± 0.012
20,GCTACAGC,-0.211 ± 0.049
21,GATTGGCC,-0.133 ± 0.01
22,AAACAGTT,0.144 ± 0.018
23,CAATCACG,0.203 ± 0.017
24,TGTAAGAA,0.0721 ± 0.088
25,TAACTAGA,-0.184 ± 0.063

row,Sequence,PBM E-score of 8-mer
1,AATAATGG,-0.203 ± 0.034
2,CGGTTATC,0.146 ± 0.084
3,GGTAGATA,-0.212 ± 0.08
4,ATAAACAG,-0.0397 ± 0.036
5,AACCCGCT,0.0344 ± 0.013
6,ACTGAATA,-0.0993 ± 0.059
7,AGAGACCA,-0.12 ± 0.063
8,AACGACTA,-0.044 ± 0.02
9,TCCGGCAA,-0.00319 ± 0.021
10,CGAGGTAA,-0.00371 ± 0.051
11,CTTAGGTA,-0.331 ± 0.15
12,AAATACTT,0.0242 ± 0.084
13,GGCGTAAC,0.0472 ± 0.011
14,ATGATACA,-0.00971 ± 0.019
15,ACATACGC,0.032 ± 0.014
16,CTATGGGA,-0.0806 ± 0.014
17,AAGTGCCC,-0.146 ± 0.044
18,ACCTTTCA,-0.012 ± 0.093
19,GACGATCC,-0.0101 ± 0.077
20,ACGCGGCG,0.105 ± 0.097
21,GTCCTAGA,-0.18 ± 0.037
22,AAACCATG,-0.0691 ± 0.0094
23,TGACGTCA,0.0843 ± 0.0046
24,AGAACAGC,-0.108 ± 0.0036
25,ATCATAGC,-0.0418 ± 0.013

row,Sequence,PBM E-score of 8-mer
1,GAACTACC,-0.148 ± 0.036
2,GAACACGC,0.151 ± 0.011
3,CTGCTGAC,0.112 ± 0.041
4,CTAATCTA,-0.0284 ± 0.085
5,GTCAGATA,-0.127 ± 0.057
6,ACGCTCAC,0.168 ± 0.039
7,GATACAGC,-0.226 ± 0.04
8,CTGATTGC,0.0476 ± 0.069
9,TCTTAAGA,-0.164 ± 0.0027
10,AAATCGGG,-0.0718 ± 0.046
11,ATATCTAA,-0.178 ± 0.048
12,CTCGGAGA,-0.282 ± 0.025
13,CTCCAATC,-0.225 ± 0.078
14,GCCCAACC,-0.105 ± 0.066
15,CAGACACG,0.117 ± 0.068
16,ATATTGTC,0.17 ± 0.039
17,AAGAGCCT,-0.323 ± 0.019
18,ATGCTAAG,-0.00439 ± 0.073
19,AACGTGTG,0.4114 ± 0.0041
20,ACTGCACT,-0.114 ± 0.025
21,CGCAAAAC,0.172 ± 0.0026
22,CTTGAGAC,-0.0204 ± 0.048
23,CATGACCG,-0.218 ± 0.029
24,CACGAATG,0.0901 ± 0.05
25,ACGCCTTC,0.3516 ± 0.0025

row,Sequence,PBM E-score of 8-mer
1,AGACCTCT,-0.281 ± 0.035
2,ATAGGTAA,0.0345 ± 0.088
3,AGTTAATA,-0.0555 ± 0.028
4,AGACAGCT,0.0635 ± 0.052
5,CTCACCGC,0.0406 ± 0.0049
6,GCACCCGC,0.305 ± 0.035
7,AGGGTGAT,0.123 ± 0.024
8,CGAATCGC,0.262 ± 0.029
9,ATCCTGCG,-0.115 ± 0.054
10,TCCTTCCA,-0.182 ± 0.039
11,CATTATTC,-0.225 ± 0.088
12,GGGAAGAA,-0.0153 ± 0.0055
13,ACACAAGG,0.164 ± 0.023
14,ATAGGTCG,-0.084 ± 0.038
15,ATGCCCAT,-0.184 ± 0.01
16,ACTGCACA,0.0847 ± 0.033
17,CATCGTCG,0.208 ± 0.048
18,CGAAGACC,-0.109 ± 0.036
19,CTCTTAAG,-0.29 ± 0.0099
20,AGTCGCCA,0.153 ± 0.067
21,ATCCCCGG,-0.169 ± 0.022
22,CTTTGAGC,-0.0941 ± 0.03
23,TCTCGTAA,0.003865 ± 3.5e-05
24,GTATTCAC,0.28649 ± 0.00028
25,CCCAGTCG,-0.0208 ± 0.099

row,Sequence,PBM E-score of 8-mer
1,ATGCTACG,0.0354 ± 0.032
2,AAACGTAC,-0.237 ± 0.034
3,AATTTCTG,-0.212 ± 0.013
4,GAGCATAA,-0.111 ± 0.0058
5,AAATTTAA,-0.175 ± 0.088
6,ATACGTAG,-0.323 ± 0.047
7,GTTCTGCA,-0.0557 ± 0.12
8,CCGTGCTA,0.207 ± 0.026
9,ACTCAGCC,-0.115 ± 0.013
10,CCATAGGC,-0.129 ± 0.012
11,ACGAGCTG,0.0453 ± 0.016
12,CAAGCGCA,0.068 ± 0.0068
13,CTTCTGAC,0.0943 ± 0.011
14,ACATGAAC,0.0738 ± 0.077
15,ATCACAGG,0.227 ± 0.05
16,TGCTCCAA,-0.147 ± 0.025
17,CCACCAAC,0.0521 ± 0.059
18,TAAAGACA,-0.0825 ± 0.03
19,CGCCTCTC,0.156 ± 0.062
20,GAATGCTC,-0.123 ± 0.047
21,CAGGCTGA,-0.119 ± 0.0098
22,CTCATAAC,-0.0809 ± 0.043
23,ATGACAAT,0.187 ± 0.063
24,ACCGGCGT,0.111 ± 0.011
25,TCGCTACA,-0.0552 ± 0.054

row,Sequence,PBM E-score of 8-mer
1,ATGAATGC,-0.0436 ± 0.072
2,ACATAACG,0.225 ± 0.018
3,CCCCGTGC,-0.228 ± 0.017
4,CCTTTATA,-0.268 ± 0.046
5,TACGACAA,0.0762 ± 0.058
6,CGCGTACC,0.151 ± 0.015
7,ACCACTCC,0.018 ± 0.099
8,AGAAGATG,-0.133 ± 0.0033
9,ACAGGTAT,0.0728 ± 0.024
10,GTGCGAAC,0.4783 ± 0.00073
11,AGCCTTTA,-0.0795 ± 0.0029
12,ATCGCGGA,0.151 ± 0.038
13,CTACAGTC,-0.0644 ± 0.057
14,AGATCCGG,-0.16 ± 0.051
15,CCATGTTC,-0.0808 ± 0.053
16,AAAAGAAT,-0.0109 ± 0.051
17,GACGCGAA,0.138 ± 0.006
18,ACGCACGT,0.102 ± 0.062
19,ACGATAGA,-0.19 ± 0.054
20,CTGCAGTA,0.0389 ± 0.029
21,TCTAAAAA,-0.117 ± 0.058
22,ACCTTTTC,-0.0164 ± 0.083
23,GTTTGACA,0.332 ± 0.036
24,CCCGCCGC,0.0241 ± 0.029
25,TGAAAGAA,-0.00098 ± 0.044

row,Sequence,PBM E-score of 8-mer
1,AAGGGGAG,-0.0888 ± 0.0069
2,CGGGTAGA,-0.172 ± 0.066
3,CATCACCA,0.165 ± 0.029
4,ATTTGCGA,0.203 ± 0.026
5,CCTCCACG,0.0268 ± 0.029
6,ACCTCATG,0.142 ± 0.057
7,GCCGCAGC,-0.0981 ± 0.017
8,GGAGAATA,-0.232 ± 0.0054
9,CAGAAGCG,0.078 ± 0.0059
10,CGTGCGGC,0.00261 ± 0.06
11,GTTTTAAA,-0.0732 ± 0.023
12,GCGGGTGA,0.261 ± 0.03
13,GTGTCCAA,0.159 ± 0.0035
14,GTAATTAC,0.169 ± 0.048
15,ACCGTAGC,-0.25 ± 0.047
16,GATATTTA,-0.105 ± 0.06
17,CGTCAACC,0.135 ± 0.011
18,TAGTTGCA,-0.212 ± 0.018
19,CAGGGAGG,-0.103 ± 0.054
20,CCACGACA,0.136 ± 0.05
21,ACGCTGGA,0.0588 ± 0.0036
22,CTGTTATC,0.227 ± 0.0068
23,CCACTACG,-0.0765 ± 0.034
24,GGTGGGCA,0.13 ± 0.074
25,AAACGTCA,-0.0667 ± 0.0055

row,Sequence,PBM E-score of 8-mer
1,ATTCGGTC,-0.0788 ± 0.015
2,GAGACAGA,-0.213 ± 0.017
3,CAACGCGA,0.173 ± 0.0078
4,ACGGACGC,0.104 ± 0.024
5,ACCGCGCA,0.059 ± 0.072
6,GTTGGCCA,-0.0151 ± 0.029
7,GAACGAGA,-0.0174 ± 0.044
8,CCGGCGCG,0.199 ± 0.077
9,TATGTAAA,-0.133 ± 0.11
10,ATCATCAG,-0.0155 ± 0.033
11,AGTATCAA,-0.0427 ± 0.0021
12,CCGCTTCG,0.136 ± 0.028
13,CGGTTGGA,-0.0027 ± 0.0015
14,AACAAGCA,0.0469 ± 0.013
15,ATTGCAGG,-0.171 ± 0.0061
16,TTTACAAA,-0.12 ± 0.032
17,AGATGGTG,0.143 ± 0.0021
18,ATTGAAAT,-0.18 ± 0.01
19,ACTGAACA,-0.0879 ± 0.037
20,GAGGATAA,0.0223 ± 0.041
21,TACACATA,0.168 ± 0.022
22,AGGTAGCG,0.143 ± 0.04
23,AGGGCTGA,-0.203 ± 0.058
24,AGCAAGAG,-0.139 ± 0.041
25,GCATATGC,0.092 ± 0.059

row,Sequence,PBM E-score of 8-mer
1,ACGCCGGC,0.242 ± 0.0047
2,AAGTAAAT,-0.021 ± 0.0083
3,CTGCTTTC,-0.0876 ± 0.063
4,ATGGACAC,0.0868 ± 0.031
5,AGGGCCGA,-0.121 ± 0.017
6,CGGTAGCA,0.276 ± 0.031
7,ACGCGGCA,0.0884 ± 0.039
8,CAGGATGC,-0.121 ± 0.076
9,AGCTGTGC,0.214 ± 0.041
10,AAGCATGC,-0.0566 ± 0.012
11,GAAAAGAA,-0.0353 ± 0.017
12,ATTTTCCC,-0.0387 ± 0.042
13,CGACTAAG,-0.197 ± 0.024
14,GGCACACC,0.314 ± 0.011
15,GTATTTAA,-0.154 ± 0.091
16,TCTACGAA,-0.121 ± 0.041
17,TCTGCAGA,-0.293 ± 0.058
18,ATTTGATA,0.0532 ± 0.066
19,AGCATACT,-0.0602 ± 0.0025

# Reference: the supplement of paper PMC4166925
